Test results as given in PubChem BioAssay AID540317 (National Center for Advancing Translational Sciences (NCATS), 2011).
Out of some 390,000 compounds screened, about 2,200 (0.56%) were called active. A call without a number means that no potency is given here. Inconclusive results, whose numbers are uncertain, are shown with a selection of clear calls. Calls follow the shape of the dose curve; as a rule, active = well fitted inhibition curve with a large enough effect; inconclusive = small, poorly fitted or top-dose-only effect; inactive = no such curve, though single readings can be large or run the other way. Potencies beside an inconclusive call are fits to weak or partial responses and may not hold up.

Biological target: Chromobox protein homolog 1 (Homo sapiens) (UniProt P83916)
Test: HTS for Inhibitors of HP1-beta Chromodomain Interactions with Methylated Histone Tails; also: nearly all actives have a fitted effect of over 70% in size
Settings: AlphaScreen HP1-beta / biotin-H3K9me3 peptide binding; series mostly up to 114 µM
Procedure, shortened: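 AlphaScreen: HP1-beta (50 nM) preformed 30 min with biotin-H3(1-18)K9me3 peptide (50 nM) in PBS pH 7.4, 0.01% Tween-20. Compound added for 30 min at RT, then streptavidin donor/nickel chelate acceptor beads (10 ug/mL) for 30 min.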
Potency is read from the fitted curve at half-maximal effect; tags tell the direction and shape of the fitted curve.

UniProt P83916, sequence (P83916 whole entry, looked up): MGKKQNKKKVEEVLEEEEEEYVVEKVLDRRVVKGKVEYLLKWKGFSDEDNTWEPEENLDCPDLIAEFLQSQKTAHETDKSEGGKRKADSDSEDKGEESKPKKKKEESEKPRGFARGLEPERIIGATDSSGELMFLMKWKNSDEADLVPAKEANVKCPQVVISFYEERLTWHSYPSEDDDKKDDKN

Compound	Potency
Cc1ccccc1NS(=O)(=O)c1cc(S(C)(=O)=O)ccc1Cl	inactive
Cc1occc1-c1n[nH]c(=S)n1C	inconclusive: 89.1 µM [inhibitor, single point]
CC1=NN(c2ccccc2)C(=O)/C1=C/c1cccs1	inconclusive: 22.4 µM [inhibitor, full curve, poor fit]
COc1ccc(N=C2S/C(=C\c3cc(C)n(C)c3C)C(=O)N2CC(C)C)cc1	inconclusive: 44.7 µM [inhibitor, partial curve]
COc1ccc(N2CC(C)Cn3c2nc2c3c(=O)n(Cc3ccccc3F)c(=O)n2C)c(OC)c1 (configuration not stated)	inconclusive: 31.6 µM [inhibitor, single point]
CCOC(=O)N1CCN(C(=O)CSc2ccc3nnc(-c4cccnc4)n3n2)CC1	inactive
CCCC(=O)Nc1cc(C)cn(Cc2c(F)cccc2Cl)c1=O	inactive
Fc1cccc(CN2CCCCCCC2)c1	inconclusive: 20 µM [inhibitor, full curve]
CN(CC1CCOCC1)C(=O)CC1C(=O)NCCN1Cc1ccccc1F (configuration not stated)	inactive
O=C1/C(=C\c2ccco2)SC(=S)N1Cc1ccccc1	inconclusive: 25.1 µM [inhibitor, partial curve, poor fit]
CCc1ccccc1NC(=S)N1CCN(c2ccccn2)CC1	inactive
O=C(CC1Sc2ncnn2C1=O)Nc1ccccc1 (configuration not stated)	inconclusive: 89.1 µM [inhibitor, single point]
O=C(CSC(=O)c1ccccc1)Nc1ccccc1F	inconclusive: 11.2 µM [inhibitor, partial curve, poor fit]
CCN(CC(=O)Nc1ccc(C(C)=O)cc1)CC(=O)Nc1ccc2c(c1)OCCO2	inconclusive: 28.2 µM [inhibitor, partial curve]
CCOc1ccc(CCNC(=O)c2ccc(-n3c(C)cc4c3CCCC4)cc2)cc1OCC	inactive
Cc1cc(C(=O)COC(=O)C23CC4CC(CC(O)(C4)C2)C3)c(C)n1C	inactive
COc1ccc2[nH]c(=O)c(CN(C3CCCCC3)C(c3nnnn3Cc3ccco3)C(C)C)cc2c1 (configuration not stated)	inconclusive: 35.5 µM [inhibitor, partial curve]
CN(c1ccccc1C(=O)N1CCOCC1)S(C)(=O)=O	inactive
Cc1ccc(NC(=O)CN2CCC(Cc3ccccc3)CC2)cc1S(=O)(=O)N(C)C	inconclusive: 20 µM [inhibitor, full curve]
CCCc1nnc(NC(=O)CCC(=O)NC2CCCCC2)s1	inactive
CCC(C)NC(=O)c1ccc2c(c1)sc1nc(-c3ccc(OC)cc3)cn12 (configuration not stated)	inactive
O=C(O)/C=C/c1cn(Cc2ccccc2)nc1-c1ccc(Cl)cc1	inactive
